Test results published in PubChem BioAssay AID686979 (National Center for Advancing Translational Sciences (NCATS), 2013).
The whole screen tested about 420,000 compounds, of which about 50,000 (12%) were called active. This list was built around the results that the source calls inconclusive (neither active nor inactive); the mix of calls is not that of the screen. The call rests on the fitted dose curve; in most records, active means well fitted inhibition curve with a large enough effect; inconclusive means small, poorly fitted or top-dose-only effect; inactive means flat fitted curve, though single readings scatter. No potency is given beside an inconclusive call; the fits are too rough.

assay: qHTS for Inhibitors of human tyrosyl-DNA phosphodiesterase 1 (TDP1): qHTS in cells in presence of CPT; details: chicken DT40 Tdp1-/-;hTDP1 cells + 20 nM CPT, ATP luminescence, 48 h; activity change, negative = growth inhibition: at 46.2 µM (top of the series) unless noted; further: nearly all actives have a fitted effect of over 55% in size
Outline: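 Chicken DT40 Tdp1-/- cells stably complemented with human TDP1 were seeded at 400 cells/well in medium containing 20 nM camptothecin, exposed to pin-transferred compounds, and grown at 37 °C for at least 48 hr. Viability was read as ATP luminescence.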
On the % scale 0 is the no-effect control and ±100 the full control effect; potency means the concentration at half of the fitted maximal effect; tags describe the fitted curve by direction and shape.

| Compound | Potency | activity change, negative = growth inhibition |
| --- | --- | --- |
| CC1(C)Cc2c(sc(NC(=O)COc3ccc(Cl)cc3Cl)c2C(N)=O)C(C)(C)N1 | inconclusive [inhibitor, single point] |  |
| Cc1ccc(-c2ccc(=O)n(CCC(=O)N3CCN(c4cccc(C)c4)C(C)C3)n2)cc1 (stereo not drawn) | inconclusive [inhibitor, single point] |  |
| c1ccc2c(c1)nc(N1CCCCCC1)c1nncn12 | inconclusive [inhibitor, single point] |  |
| CC(=O)c1ccccc1OC(=O)c1ccc(-c2ccccc2)cc1 | inactive |  |
| CC(C)Oc1ccc(-c2nc(-c3cccnc3)no2)cc1 | inconclusive [inhibitor, single point] |  |
| O=C(Nc1nnc(SCc2cccnc2)s1)C1CC(=O)N(c2ccccc2)C1 (stereo not drawn) | inactive |  |
| Cc1cccc(NS(=O)(=O)c2ccc3c(c2)CC(C)N3C(=O)C2CCC2)c1C (stereo not drawn) | inconclusive [inhibitor, single point] |  |
| O=C(CCS(=O)(=O)c1ccc(Br)cc1)Nc1ccc(F)cc1F | inconclusive [inhibitor, single point] |  |
| CCn1c(=O)c(C(=O)NC(C)c2ccccc2)c(O)c2ccccc21 (stereo not drawn) | inconclusive [inhibitor, single point] |  |
| COC(=O)[C@H]1[C@@H](C)N(Cc2ccccc2)C(=O)N[C@H]1c1ccccc1 | inactive |  |
| CN(Cc1ccccc1)C(=O)COC(=O)c1cc(NS(=O)(=O)c2cccs2)ccc1O | inconclusive [inhibitor, single point] |  |
| CCc1nc2ccc(C(=O)NCc3cc(OC)ccc3OC)cc2nc1CC | active: 16.4 µM |  |
| CC(=O)NC(C)(c1ccccc1)c1nc(-c2ccc(N(C)C)cc2)cs1 (stereo not drawn) | active: 16.4 µM |  |
| CCc1cc(=O)oc2cc(C)cc(O)c12 | inconclusive [inhibitor, single point] |  |
| S=c1[nH]nc(COc2ccccc2)n1/N=C/c1ccncc1 | inactive |  |
| Cc1cc(NC(=O)CSc2nc(C3CC3)nc3sc4c(c23)CCC(C)C4)no1 (stereo not drawn) | active: 16.4 µM |  |
| CNC(=O)c1ccsc1NC(=O)CCS(=O)(=O)c1ccc(Cl)cc1 | inconclusive [inhibitor, single point] |  |
| Cc1ccc(NCc2n[nH]c(=S)n2Cc2ccccc2)cc1Cl | inconclusive [inhibitor, single point] |  |
| O=C1CC(c2nc(-c3ccccc3)no2)CN1c1ccccc1 (stereo not drawn) |  | inconclusive: -33.4% [inhibitor] |
| CCOc1ccc(N2CC(c3nc4ccccc4n3CCOc3ccccc3OC)CC2=O)cc1 (stereo not drawn) | inconclusive [inhibitor, single point] |  |
| CN(CC(=O)Nc1c(Cl)cccc1Cl)CC(=O)N1CCc2ccccc21 | inconclusive [inhibitor, single point] |  |
| COc1ccc(Cn2c(=O)n(Cc3ccco3)c(=O)c3oc4ccccc4c32)cc1 | inconclusive [inhibitor, single point] |  |
| Cc1cccc2sc(N(CCN(C)C)C(=O)c3ccc4c(c3)OCCO4)nc12 | inconclusive [inhibitor, single point] |  |

| Compound | Potency | activity change, negative = growth inhibition |
| --- | --- | --- |
| O=C(Nc1ccccc1N1CCOCC1)c1ccc(Br)o1 | active: 20.6 µM |  |
| CC(C)OCCCNC(=O)C1CC(=O)N(CCc2ccc(F)cc2)C1 (stereo not drawn) | inactive |  |
| Cc1cc(C)c(C#N)c(SCS(=O)Cc2ccccc2)n1 (stereo not drawn) | inactive |  |
| O=C1NC(=S)S/C1=C\c1ccc2ccccc2c1 | inconclusive [inhibitor, single point] |  |
| COc1cc2c(NC3CCN(C)CC3)nc(N3CCCN(C)CC3)nc2cc1OCCCCCN | inconclusive [inhibitor, single point] |  |
| CCc1ccc(NC(=O)Nc2cnccn2)cc1 | inconclusive [inhibitor, single point] |  |
| Cc1cccc2sc(NC(=O)c3ccc(Cl)s3)nc12 | inconclusive [inhibitor, single point] |  |
| CC(=O)N1CCc2cc(S(=O)(=O)CCC(=O)Nc3ccc(C)cc3Br)ccc21 | inconclusive [inhibitor, partial curve] |  |
| Cc1ccc(Cn2c(C)c3cnn(CC(=O)NCc4ccccc4)c(=O)c3c2C)cc1 | active: 2.91 µM |  |
| COCCN1C(=O)CSCC1(C)C(=O)NC(C)C (stereo not drawn) | inactive |  |
| Cc1ccc(-n2c(SCC(=O)Nc3cccc(S(=O)(=O)NC4=NCCCCC4)c3)nc3ccccc3c2=O)cc1 | inconclusive [inhibitor, single point] |  |
| O=C(CCS(=O)(=O)c1ccc(Cl)cc1)NCCN1C(=O)S/C(=C\c2ccccc2F)C1=O | inconclusive [inhibitor, single point] |  |
| COC(=O)[C@@]12CCCCN1[C@H](c1ccc(-c3cc(C(C)=O)cs3)cc1)[C@H]1C(=O)N(C)C(=O)[C@H]12 | active: 5.17 µM |  |
| Cc1ccc(C)c(NS(=O)(=O)c2ccc(OCC(=O)N3CCCC3)cc2)c1 | inactive |  |
| COc1ccc(-c2cn[nH]c2-c2ccc(O)cc2O)cc1 |  | inconclusive: -31.4% [inhibitor] |
| Cc1cc(OCC(=O)NCC(c2cccs2)N2CCOCC2)ccc1C(C)C (stereo not drawn) | inconclusive [inhibitor, single point] |  |
| COc1ccc(/C=N/N2CCN(c3ccc(Cl)cc3)CC2)cc1 | inactive |  |
| COc1ccccc1N1CCN(C(c2cccs2)C(C)NC(=O)c2ccco2)CC1 (stereo not drawn) | inconclusive [inhibitor, single point] |  |
| CC(C)N(C(=O)COC(=O)[C@@H]1CC(O)CN1S(=O)(=O)c1ccc(C(C)(C)C)cc1)C(C)C (stereo partly drawn) | inconclusive [inhibitor, partial curve] |  |
| CCN(CC)C(=O)CC(c1ccc2c(c1)OCO2)c1c(OC)cc(OC)c2c(-c3ccccc3)cc(=O)oc12 (stereo not drawn) | inconclusive [inhibitor, single point] |  |
| CC(=O)Nc1sc(C)c(C)c1C(=O)OCC(=O)Nc1ccccc1 | inconclusive [inhibitor, single point] |  |
| O=C(CSc1nnc(-c2ccco2)n1-c1ccccc1)N1CCN(C(=O)c2ccco2)CC1 | inconclusive [inhibitor, single point] |  |
| Cc1cc(OC(C)C(=O)Nc2cccc(-c3nc4ccccc4o3)c2)cc(C)c1Cl (stereo not drawn) | inconclusive [inhibitor, single point] |  |

| Compound | Potency | activity change, negative = growth inhibition |
| --- | --- | --- |
| Cc1ccccc1OCc1nc2ccccc2c(=O)n1/N=C/c1cn[nH]c1-c1ccccc1 | inconclusive [inhibitor, single point] |  |
| CCN(CC)CCCN(Cc1cc2ccc(C)c(C)c2[nH]c1=O)C(=O)NC1CCCCC1 | inconclusive [inhibitor, single point] |  |
| Cc1cc(C(=O)OCC(=O)c2ccc(Cl)c([N+](=O)[O-])c2)c2cccc(C)c2n1 | inconclusive [inhibitor, single point] |  |
| O=[N+]([O-])c1cc(C(F)(F)F)cc([N+](=O)[O-])c1NCCNC(=S)Nc1cccc(F)c1 | inconclusive [inhibitor, single point] |  |
| Cc1ccsc1CNS(=O)(=O)c1ccc(F)cc1 | inconclusive [inhibitor, single point] |  |
| O=C(NCCCN1CCCCCC1)c1ccc2c(c1)sc1nc(-c3ccccc3)cn12 | active: 6.51 µM |  |
| CC(C)(O)C#Cc1ccc(C(=O)N2CCC(C(N)=O)(N3CCCCC3)CC2)o1 | inactive |  |
| O=[N+]([O-])c1cc(S(=O)(=O)Nc2ccccc2)ccc1N1CCN(c2ccc(O)cc2)CC1 | inconclusive [inhibitor, single point] |  |
| COc1ccc(C(=O)CCN2CCN(c3ccc(OC)cc3)CC2)cc1 | active: 2.06 µM |  |
| COC(=O)c1nn(-c2ccc(OC)cc2)c(=O)cc1O | inactive |  |
| Nc1cc(Cl)cc2c1-c1ccc(Cl)cc1C2 | inconclusive [inhibitor, partial curve] |  |
| Nc1c(N(C(=O)Nc2ccc(Cl)c(Cl)c2)C2CCCC2)c(=O)[nH]c(=O)n1Cc1ccccc1 | inconclusive [inhibitor, single point] |  |
| COc1ccc(-c2nc(CS(=O)(=O)CC(=O)NCc3ccccc3Br)c(C)o2)cc1 | inconclusive [inhibitor, single point] |  |
| CCCc1nc2c([nH]1)C(c1cccnc1)C(C#N)=C(N)O2 (stereo not drawn) | inactive |  |
| C/C(CC(=O)Nc1ccc(N(C)C)cc1)=N\NC(=O)c1ccc(F)cc1 | inactive |  |
| CCOc1ccccc1CN1CCCC(CNS(=O)(=O)c2ccc(OC)cc2)C1 (stereo not drawn) | inconclusive [inhibitor, single point] |  |
| CCC(C(=O)Nc1ccc(C)c(C)c1)n1c(=O)c(C(F)(F)F)nc2ccccc21 (stereo not drawn) | inconclusive [inhibitor, single point] |  |
| Cc1cccc(NC(=O)c2cc(-c3cc(Cl)ccc3O)n[nH]2)c1 | inconclusive [inhibitor, partial curve] |  |
| COc1ccc(N=C2C(=O)Nc3ccccc32)cc1 | inactive |  |
| CC(C)(C)OC(=O)NCCCCCc1nnc(SCc2ccccc2F)o1 | inconclusive [inhibitor, single point] |  |
| O=C(Nc1nn(Cc2ccc(Cl)cc2)cc1Br)c1ccc(COc2ccccc2Cl)o1 | active: 25.9 µM |  |
| COc1cc(CC(=O)Oc2ccc3c(c2)OCO3)cc(OC)c1OC | inconclusive [inhibitor, partial curve] |  |
